Whole data set: some 33,000 sequences, median “E-score (-0.5 to 0.5)” near -0.032, cut for the highest 2% near 0.36. This is one part of the list.
The sequences below were run against T1, Sko1 (UniProt Q02100) (assay: PBM E-score (8-mer binding enrichment) (E-score (-0.5 to 0.5)); higher = stronger / more preferred TF binding; most listed sequences are background and not binding sites). Conditions: protein concentration: 200 nM; construct: GST-full length.
T1 sequence: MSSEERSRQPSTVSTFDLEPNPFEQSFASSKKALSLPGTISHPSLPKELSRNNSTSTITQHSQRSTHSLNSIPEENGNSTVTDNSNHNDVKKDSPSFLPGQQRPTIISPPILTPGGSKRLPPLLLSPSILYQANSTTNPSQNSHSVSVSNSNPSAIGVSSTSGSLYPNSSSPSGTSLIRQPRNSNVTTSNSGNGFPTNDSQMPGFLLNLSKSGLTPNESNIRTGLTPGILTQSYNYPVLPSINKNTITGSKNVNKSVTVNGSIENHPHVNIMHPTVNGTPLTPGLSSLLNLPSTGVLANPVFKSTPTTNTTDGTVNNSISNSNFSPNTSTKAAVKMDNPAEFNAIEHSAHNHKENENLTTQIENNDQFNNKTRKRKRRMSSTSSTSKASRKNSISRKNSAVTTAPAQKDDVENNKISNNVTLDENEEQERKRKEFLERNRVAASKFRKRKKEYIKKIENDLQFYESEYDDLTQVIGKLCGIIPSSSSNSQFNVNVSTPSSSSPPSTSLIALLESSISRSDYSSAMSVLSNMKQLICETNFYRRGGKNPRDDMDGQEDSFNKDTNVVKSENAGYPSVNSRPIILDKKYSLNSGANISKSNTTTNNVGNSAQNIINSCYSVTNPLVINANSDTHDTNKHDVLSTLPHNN
How it was run: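 PURExpress in vitro transcription/translation supplied GST-tagged yeast transcription factors, either full-length or DNA-binding domain. Applied at about 100-200 nM to universal all-10-mer Agilent arrays double-stranded by primer extension, the bound protein was detected with fluorescent anti-GST. E-scores, modified Wilcoxon-Mann-Whitney statistics, were given by the Universal PBM Analysis Suite to ungapped eight-base words pooled with their reverse complements after masliner normalisation.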

| Sequence | PBM E-score |
| --- | --- |
| GTAGTTCA | 0.112 |
| CAAGGCAC | -0.148 |
| CTGTGGAC | -0.155 |
| CCCCGGGC | -0.344 |
| GTACCTGA | 0.16 |
| TATAAGCA | 0.0189 |
| AAGCACTG | -0.0664 |
| AACTCCTA | -0.1 |
| AGATATTG | 0.0206 |
| GAGGACTC | -0.241 |
| CCGTTTGC | -0.226 |
| CTTACCGC | -0.204 |
| AGACGCAG | 0.00981 |
| GGACCGCA | -0.275 |
| ACTCAACA | 0.186 |
| CGTGAGGA | -0.0286 |
| CTACCAAC | 0.0684 |
| AGTTACCC | -0.204 |
| GACGCTGC | 0.122 |
| GCCAATGA | 0.0138 |
| ACTAAAGA | 0.0552 |
| CAGTTTTA | 0.0607 |
| ACCCTAGA | -0.0276 |
| CAGTCCAC | -0.144 |
| CCAGGTAG | -0.281 |

| Sequence | PBM E-score |
| --- | --- |
| CTTCAAAG | -0.0612 |
| ATCAGGAT | 0.077 |
| CAATTCGA | -0.0639 |
| GCTTATCC | -0.0737 |
| ATGTACAG | -0.0459 |
| CGACGTAG | 0.368 |
| ATCCGGAT | -0.219 |
| ATGTCCAG | -0.171 |
| AGAGATGC | 0.0796 |
| AGAATTTC | -0.176 |
| ATCCGGTA | -0.013 |
| ATTTGAAA | 0.207 |
| ACAACCCT | -0.208 |
| ACCGTACG | 0.145 |
| GGATCGAC | -0.242 |
| CCAAAGGA | -0.224 |
| ACATCAAA | 0.1 |
| AGAAGTCA | 0.011 |
| ATACTGTC | 0.0677 |
| AGGCGCGC | 0.0511 |
| CTCCTGCA | -0.297 |
| ATGTTTAA | 0.194 |
| AGAGAACG | 0.117 |
| ACAAAGGG | -0.29 |
| CGGCTACG | 0.243 |

| Sequence | PBM E-score |
| --- | --- |
| GAGTCTAA | -0.00122 |
| CGACAGAA | 0.099 |
| GGCACACA | -0.189 |
| CGTGTTAA | 0.266 |
| CATCCGAG | -0.0637 |
| CGTGCCAC | 0.182 |
| GCTTTCAA | 0.0634 |
| ACAGGCTC | -0.177 |
| ATTGCTAG | -0.0439 |
| GGAGCTCA | -0.167 |
| GGGGTAAC | -0.0418 |
| CGGTTCAA | -0.1 |
| AGCGTGGA | -0.0529 |
| GCCAGGGA | -0.0386 |
| ATCACAAA | 0.119 |
| CCGTTAAA | -0.0181 |
| AGTCCTTA | -0.0267 |
| CTCAGAAC | 0.13 |
| CACAGCCG | -0.31 |
| AACATCGA | 0.156 |
| CAAATCGA | 0.0339 |
| ATACGTTC | 0.374 |
| ACTCTATC | -0.012 |
| GGTGCTTA | -0.169 |
| GACGCCGC | 0.0101 |

| Sequence | PBM E-score |
| --- | --- |
| ACCCGGCA | -0.367 |
| CAACAAAG | 0.0333 |
| CCGCAATA | 0.0923 |
| GATACGAA | 0.227 |
| ACAGTACG | 0.235 |
| ATGCGCAT | 0.276 |
| ATCGGGCG | -0.151 |
| CGATGAGC | -0.177 |
| AATAGTAC | 0.135 |
| CGTACGAG | 0.242 |
| CGTTTGAA | 0.143 |
| CTATGAAG | 0.0914 |
| AAGGTGGC | -0.149 |
| GCGTGAAC | -0.0276 |
| GCTCTGTA | -0.0735 |
| AGTAAAAA | 0.157 |
| CTACGCTC | -0.0646 |
| ATCTCCTC | -0.209 |
| AGTAGGGA | -0.177 |
| ACGGGGGG | -0.287 |
| ACCACCGT | -0.278 |
| AATGAACC | -0.0854 |
| AATATTCC | 0.0396 |
| CCGAATGA | 0.213 |
| CGGCGCAC | -0.302 |

| Sequence | PBM E-score |
| --- | --- |
| AGCCTCAC | -0.151 |
| GCGCCCCC | -0.392 |
| CCGTCGAG | 0.0473 |
| ATTTTGCG | 0.0854 |
| AAATAATT | 0.198 |
| AAGGGTTA | -0.048 |
| AACACACG | 0.266 |
| AGGCTGCC | -0.341 |
| TATGTTCA | 0.141 |
| CATACACC | -0.0872 |
| AACGTTGA | 0.201 |
| TGCACCAA | -0.177 |
| CAAGGGTA | -0.207 |
| CGATTGTA | 0.142 |
| ATTGCCTC | 0.0801 |
| CGGGCGTC | -0.132 |
| CTCGATTA | 0.074 |
| AGCTAAAT | 0.0636 |
| ATATGGCC | -0.0853 |
| GAAAACTA | 0.0282 |
| CGGAGAGC | -0.0419 |
| GGAAACAC | 0.00845 |
| ACGTGGCT | 0.321 |
| AGAGTTGC | -0.118 |
| GCAAGGCA | 0.0267 |

| Sequence | PBM E-score |
| --- | --- |
| TTGCTAAA | 0.0364 |
| GTCCGCCA | -0.125 |
| AATGCTTG | 0.0118 |
| GCAGATGC | -0.115 |
| TCGTTGCA | 0.137 |
| GGCCACAC | -0.178 |
| TAACAAAA | 0.204 |
| AAGCCAAT | 0.0557 |
| CACAGGCG | -0.19 |
| ACATTGTA | -0.016 |
| GCCGCAGA | -0.176 |
| CATTTCAG | -0.0277 |
| GCTCGCCA | -0.243 |
| ACTGGTAA | 0.0395 |
| GCTCCCAA | -0.291 |
| AGCAGTTG | -0.27 |
| AAACGTGA | 0.308 |
| ACTACCGC | -0.0886 |
| CAACCTGC | 0.00356 |
| ACCGCGGC | -0.155 |
| CCCTTCGG | -0.0247 |
| AAGGCTCG | -0.306 |
| TGCCTCAA | -0.107 |
| AGACTCCC | -0.303 |
| CACTCCAC | -0.00354 |

| Sequence | PBM E-score |
| --- | --- |
| AGACTCCT | -0.227 |
| ATCTAGGC | -0.213 |
| TCACGAAA | 0.298 |
| ACGCTTCG | -0.0272 |
| CGCCGGCC | -0.326 |
| ACTTTCTG | -0.0274 |
| CGACGAAC | 0.0233 |
| CGCTTATA | 0.165 |
| CGTCTTTC | 0.158 |
| AGATGCCC | -0.252 |
| CTGTGTCA | -0.118 |
| AAGCAAAG | -0.19 |
| GCAGTAGA | -0.0999 |
| CGCGATCA | 0.0671 |
| CCTATTAC | 0.216 |
| ACGTTTCT | 0.285 |
| GCGAATGA | 0.171 |
| AATCCAAC | -0.0343 |
| CTCTCCAC | -0.171 |
| ACGACCCT | -0.194 |
| CACCTCTG | -0.264 |
| AGGTGGTA | -0.157 |
| ATTTGGGC | -0.0942 |
| GCCGAGGC | -0.116 |
| CGTAGTTC | 0.19 |

| Sequence | PBM E-score |
| --- | --- |
| GGTTAAAC | 0.0945 |
| CGAGCACG | 0.0337 |
| AGCGAGAT | -0.0977 |
| ATCGCTTC | 0.0445 |
| CTTAAGGC | -0.188 |
| GCAAACCA | -0.0509 |
| ACCCCGGT | -0.386 |
| CCTACAGA | -0.0623 |
| ATCCTAGG | -0.338 |
| AATGGGGT | -0.169 |
| CTGGAGCC | -0.244 |
| CAGATCTC | -0.196 |
| AGGCTCCC | -0.299 |
| ATTTAGGC | 0.0936 |
| AACCAAAC | 0.0145 |
| AGCACACC | -0.192 |
| ACCAAAAA | 0.159 |
| GAGTGAAA | 0.0485 |
| GACGTCTC | 0.384 |
| ATCGTGCC | 0.00785 |
| TCCAACCA | -0.1 |
| ATCTAGGG | -0.0976 |
| CTGAGCAA | 0.0232 |
| CCTTGCAC | 0.0446 |
| GAGCGTAC | -0.0178 |

| Sequence | PBM E-score |
| --- | --- |
| AGCGATTA | 0.0596 |
| ATTGCCAC | -0.11 |
| GAACGTTC | -0.0592 |
| AGCCGAAG | -0.0411 |
| ATCCATGA | -0.129 |
| CAGGACCA | -0.185 |
| CCGTGGCC | -0.207 |
| CTGAAAAG | -0.0929 |
| ATTATCCC | 0.175 |
| ATGCGCAA | 0.165 |
| ACCAGCTA | -0.0449 |
| ACTGCCCA | -0.0818 |
| CGTGAAAG | 0.267 |
| CCATAGGG | -0.278 |
| CTAAGTGC | -0.0892 |
| TGCAAGCA | -0.0894 |
| CGTCATTC | 0.482 |
| GTCTGCGA | -0.0944 |
| AGATGATC | 0.0317 |

— the supplement of paper PMC3334620
